Experimental data taken from PubChem BioAssay AID1345082 (National Center for Advancing Translational Sciences (NCATS), 2018).
Out of some 94,000 compounds screened, about 4,000 (4.3%) were called active. The shares of active, inactive and inconclusive entries below differ from those in the screen. Calls follow the shape of the dose curve; as a rule, active = well fitted inhibition curve with a large enough effect; inconclusive = small, poorly fitted or top-dose-only effect; inactive = no such curve, though single readings can be large or run the other way. Where the call is inconclusive, the potency comes from a doubtful curve fit.
Potency is read from the fitted curve at half-maximal effect; tags tell the direction and shape of the fitted curve.

Test: Cytotoxic Profiling in NIH 3T3 Cell Line of Diverse Libraries Using Quantitative High-Throughput Screening; also: nearly all actives have a fitted effect of over 55% in size
Conditions: NIH 3T3 viability, CellTiter-Glo ATP luminescence, 48-72 h; series mostly up to 96.7 µM
Outline: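 Cytotoxicity was measured by CellTiter-Glo ATP luminescence after 48 or 72 h compound exposure at 37 °C. Mouse NIH 3T3 fibroblasts were seeded at 400 cells/well and dosed by 23 nL pin transfer.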
With `COc1ccc(Nc2ccnc(N3CCC(C(=O)N4CCCCC4)CC3)n2)cc1` the Potency was inconclusive: 50.1 µM [inhibitor, partial curve, poor fit]. In the case of `CCCNC(=O)N1CCC2(CC1)CC(N(C(=O)NC(C)C)C1CC1)CCO2` (configuration not stated), the Potency is reported as “inactive”. In the case of `O=C(C1CCCN(c2cn[nH]c(=O)c2)C1)N1CCN(c2ccccn2)CC1` (configuration not stated), the Potency is reported as “inactive”. With `O=C(c1ccccc1Cl)N1CCC(c2nc(-c3cccnn3)no2)CC1` the Potency was “inactive”. For `CC(=O)N1CC2(Cc3ccccc31)CN([S+](=O)([O-])c1cccc(C(F)(F)F)c1)C2`, the Potency was inconclusive: 50.1 µM [inhibitor, partial curve, poor fit]. With `O=C(Nc1ccc(Cl)cc1)c1nc2c(o1)CCN(CC1CC1)CC2` the Potency was inconclusive: 89.1 µM [inhibitor, partial curve]. With `O=C(NCc1cccc(C(F)(F)F)c1)c1ccc2nnc(-c3ccc(Cl)cc3)n2c1` the Potency was active: 39.8 µM. In the case of `COc1ccccc1N1CCN(C(=O)C[C@@H]2CCNC[C@@H]2Cc2cc(-c3ccc(C(C)(C)C)cc3)on2)CC1`, the Potency is reported as inconclusive: 22.4 µM [inhibitor, full curve, poor fit]. With `COc1ccc(CN2CC3(CCN(C(=O)c4ccc(OC)c(F)c4)CC3)C2=O)cc1` the Potency was “inactive”. In the case of `COc1ccc(-c2noc(Nc3ccc(OC)cc3OC)n2)cc1`, the Potency is reported as “inactive”. In the case of `C[C@@H]1CN(C(=O)c2ccc3c(c2)NC(C)(CCCCc2ccccc2)CO3)C[C@H](C)O1` (some centres not stated), the Potency is reported as inconclusive: 56.2 µM [inhibitor, partial curve, poor fit]. For `O=S(=O)(NC1CCCN(c2nc3ccccc3s2)C1)N1CCCC1` (configuration not stated), the Potency was inconclusive: 89.1 µM [inhibitor, single point]. With `CC(=O)N1CCC2(CC1)CN(C(=O)c1cccc3[nH]ccc13)Cc1ccccc1O2` the Potency was “inactive”. In the case of `Cc1nc2n(c1C(=O)NCc1cccs1)CCC(Nc1ccccc1)C2` (configuration not stated), the Potency is reported as inconclusive: 100 µM [inhibitor, partial curve, poor fit]. For `CC(C)(C)c1ccc(C(=O)N2CCN(C(=O)c3nnn4c3COC(c3ccc(F)cc3)C4)CC2)cc1` (configuration not stated), the Potency was inconclusive: 44.7 µM [inhibitor, partial curve, poor fit]. In the case of `Cc1cc(C)cc(-c2ccc(CN3CCCC(NC(=O)NC(C)C)C3)cc2)c1` (configuration not stated), the Potency is reported as “inactive”. In the case of `CSc1ccc(-c2cccc(C(=O)NCC(=O)NCC3CC3)c2)cc1`, the Potency is reported as inconclusive: 44.7 µM [inhibitor, partial curve, poor fit]. In the case of `COc1cccc(CNC(=O)[C@@H]2C[C@@H](O)CN2C2CCN(C(=O)COc3cccc(C)c3)CC2)c1`, the Potency is reported as “inactive”. For `COc1ccc(-c2cc(C(=O)NCc3cccc(OC)c3)c3cnn(C)c3n2)cc1`, the Potency was inconclusive: 28.2 µM [inhibitor, full curve, poor fit]. In the case of `COc1ccc(S(=O)(=O)N2CCC(C3CCN(C(C)=O)CC3)C2)cc1` (configuration not stated), the Potency is reported as “inactive”. In the case of `Cc1ccc(C)c(NC(=O)c2cc3cn(C4CC4)cc3s2)c1`, the Potency is reported as inconclusive: 50.1 µM [inhibitor, partial curve, poor fit]. With `CC(=O)NCC(=O)NCc1nnc2ccc(-c3ccc(C)c(C)c3)nn12` the Potency was “inactive”. For `CC(C)C(=O)N1CCC(Cc2noc(-c3ccccc3)n2)C1` (configuration not stated), the Potency was “inactive”. With `O=C(C1CCN(Cc2ccco2)CC1)N1CCC2(CCCNC2=O)C1` (configuration not stated) the Potency was “inactive”. For `O=C(Cc1cccc(C(F)(F)F)c1)N1CCCc2ncc(C(=O)N3CCCC[C@@H]3c3ccccc3)cc21`, the Potency was inconclusive: 70.8 µM [inhibitor, partial curve, poor fit]. In the case of `COc1ccccc1CNC[C@H]1Cn2c(-c3cccc(Cl)c3)cnc2CO1`, the Potency is reported as inconclusive: 112 µM [inhibitor, partial curve, poor fit]. In the case of `COc1ccc(-c2cc(N3CCC(NC(=O)c4ccc(F)cc4F)CC3)n[nH]2)cc1`, the Potency is reported as inconclusive: 44.7 µM [inhibitor, partial curve, poor fit]. With `COc1ccc2c3c1CN(C(C)=O)CC3=CC(C)(C)CO2` the Potency was inconclusive: 50.1 µM [inhibitor, partial curve, poor fit]. With `COC(=O)CNC(=O)c1cc(-c2ccsc2)c2nncn2n1` the Potency was “inactive”. For `Cc1ccccc1N(C)C1CN([S+](=O)([O-])c2c(C)noc2C)C1`, the Potency was inconclusive: 79.4 µM [inhibitor, partial curve, poor fit]. With `CC1(COCC2CC2)COc2ccc(C(=O)Nc3ccc(Cl)cc3)cc2N1` (configuration not stated) the Potency was active: 35.5 µM. For `CCO[C@H]1CN(C2CCN(c3ccc4c(c3)CCC4)CC2)C[C@@H]1O`, the Potency was inconclusive: 44.7 µM [inhibitor, partial curve, poor fit]. For `Cc1nn(-c2ccccc2)c2c1C(C1CC1)N(C1CN(C(=O)NC(C)c3ccccc3)C1)C2=O` (configuration not stated), the Potency was inconclusive: 12.6 µM [inhibitor, full curve]. For `OCC1CN(c2ccncn2)CC12CCN(Cc1cc(F)c(F)c(F)c1)CC2` (configuration not stated), the Potency was “inactive”. For `O=C(NC1CCCN(c2cc(-c3ccccc3)[nH]n2)C1)c1nccc2ccccc12` (configuration not stated), the Potency was inconclusive: 44.7 µM [inhibitor, partial curve, poor fit]. For `O=C(NC1CC1)c1ccc2c(c1)C1(CCN(CC3CC3)C1)CN2Cc1ccccc1` (configuration not stated), the Potency was inconclusive: 79.4 µM [inhibitor, partial curve, poor fit]. With `Cc1ccc(OCc2nc(C3CCN(C(=O)c4ccn[nH]4)CC3)no2)cc1` the Potency was inconclusive: 44.7 µM [inhibitor, partial curve, poor fit]. In the case of `O=C(CCC1CCN(S(=O)(=O)c2cccc(F)c2)CC1)N1CCc2ccccc2C1`, the Potency is reported as inconclusive: 35.5 µM [inhibitor, partial curve, poor fit]. With `CC(C)SCC(=O)N1CCC2(CC1)CC(c1ccccc1)C(=O)N2C` (configuration not stated) the Potency was “inactive”. For `O=C(Cc1ccc2c(c1)OCO2)N1CCOCC2(CN(Cc3cc(F)cc(F)c3)C2)C1`, the Potency was active: 35.5 µM. With `O=C(Nc1ccc2c(c1)CCC2)N1CCc2c(nc3cc(-c4ccccc4)[nH]n3c2=O)C1` the Potency was “inactive”. With `COc1cccc2c1OCCCN(Cc1cn(-c3ccccc3)nn1)C2` the Potency was inconclusive: 44.7 µM [inhibitor, partial curve, poor fit].
